Test results: a collection of fitness landscapes (doi:10.1016/j.celrep.2020.107928)
In all, about 81,000 sequences were measured (“one-hybrid fitness for binding parS DNA”: median about -0.17, highest 2% from about 0.51 on). Some of the results follow.

B1: Caulobacter ParB omega fusion; a variant is named by its letters at X, in order, B8GW30 (parent)
chain: MESVVVGEPGMSEGRRGLGRGLSALLGEVDAAPAQAPGEQLGGSREAPIEILQRNPDQPRRTFREEDLEDLSNSIREKGVLQPILVRPSPDTAGEYQIVAGERAWRAAQRAGLKTVPIMVRELDDLAVLEIGIIENVQRADLNVLEEALSYKVLMEKFERTQENIAQTIGKSXSHVANXMRLLXLPDEVQSYLVSGELTAXHARAIAAAADPVALAKQIIEGGLSVRETEALARKAPNLSAGKSKGGRPPRVKDTDTQALESDLSSVLGLDVSIDHRGSTGTLTITYATLEQLDDLCNRLTRGI

Variants of: B1
Assay: one-hybrid fitness for binding parS DNA (scaled: cognate 1, non-cognate 0); higher = stronger binding
Conditions: with parS DNA site
Outline: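 On M9-minus-histidine containing 0.1 mM IPTG and 5 mM 3-AT, E. coli USO cells with a HIS3 reporter, site 19 bp from the promoter, grew 48 hours at 37°C to select Caulobacter ParB libraries randomised at four specificity codons. Plasmids from before and after were Illumina-sequenced, with three replicate libraries pooled and variants under 10 reads left out. Fitness is the log change in variant-to-wild-type read ratio, rescaled against cognate and non-cognate.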
YCNS was tested, and the “one-hybrid fitness for binding parS DNA” value was at most 0.2.
For SDKV, the “one-hybrid fitness for binding parS DNA” value was at most 0.2.
For CSLA, the “one-hybrid fitness for binding parS DNA” value was at most 0.2.
For SGIG, the “one-hybrid fitness for binding parS DNA” value was at most 0.2.
For PRAF, the “one-hybrid fitness for binding parS DNA” value was at most 0.2.
For CVSV, the “one-hybrid fitness for binding parS DNA” value was at most 0.2.
RDEK was tested, and the “one-hybrid fitness for binding parS DNA” value was 0.207.
LDGI was tested, and the “one-hybrid fitness for binding parS DNA” value was at most 0.2.
With QNKK the “one-hybrid fitness for binding parS DNA” value was at most 0.2.
With RPTN the “one-hybrid fitness for binding parS DNA” value was at most 0.2.
For CKSG, the “one-hybrid fitness for binding parS DNA” value was at most 0.2.
CPHF was tested, and the “one-hybrid fitness for binding parS DNA” value was at most 0.2.
In the case of RPMC, the “one-hybrid fitness for binding parS DNA” value is reported as at most 0.2.
GQDL was tested, and the “one-hybrid fitness for binding parS DNA” value was at most 0.2.
For FLVV, the “one-hybrid fitness for binding parS DNA” value was at most 0.2.
EVNT was tested, and the “one-hybrid fitness for binding parS DNA” value was at most 0.2.
For QWVT, the “one-hybrid fitness for binding parS DNA” value was at most 0.2.
In the case of RGLK, the “one-hybrid fitness for binding parS DNA” value is reported as at most 0.2.
In the case of AVQE, the “one-hybrid fitness for binding parS DNA” value is reported as at most 0.2.
For KRTD, the “one-hybrid fitness for binding parS DNA” value was at most 0.2.
In the case of GTKR, the “one-hybrid fitness for binding parS DNA” value is reported as at most 0.2.
For DAQS, the “one-hybrid fitness for binding parS DNA” value was 0.22.
TQAM was tested, and the “one-hybrid fitness for binding parS DNA” value was at most 0.2.
For NLAT, the “one-hybrid fitness for binding parS DNA” value was at most 0.2.
HRRS was tested, and the “one-hybrid fitness for binding parS DNA” value was 0.455.
With SRYR the “one-hybrid fitness for binding parS DNA” value was at most 0.2.
For CSKG, the “one-hybrid fitness for binding parS DNA” value was at most 0.2.
For LAAP, the “one-hybrid fitness for binding parS DNA” value was at most 0.2.
With LRHF the “one-hybrid fitness for binding parS DNA” value was at most 0.2.
For KRCV, the “one-hybrid fitness for binding parS DNA” value was at most 0.2.
LAHA was tested, and the “one-hybrid fitness for binding parS DNA” value was at most 0.2.
With ITPE the “one-hybrid fitness for binding parS DNA” value was at most 0.2.
For YFDM, the “one-hybrid fitness for binding parS DNA” value was at most 0.2.
ITIG was tested, and the “one-hybrid fitness for binding parS DNA” value was at most 0.2.
In the case of HCRS, the “one-hybrid fitness for binding parS DNA” value is reported as at most 0.2.
For GACC, the “one-hybrid fitness for binding parS DNA” value was at most 0.2.
For KIPS, the “one-hybrid fitness for binding parS DNA” value was at most 0.2.
With VCAW the “one-hybrid fitness for binding parS DNA” value was at most 0.2.
For RYGK, the “one-hybrid fitness for binding parS DNA” value was at most 0.2.
EYDT was tested, and the “one-hybrid fitness for binding parS DNA” value was at most 0.2.
GFRG was tested, and the “one-hybrid fitness for binding parS DNA” value was at most 0.2.
In the case of AYRC, the “one-hybrid fitness for binding parS DNA” value is reported as at most 0.2.
HRCY was tested, and the “one-hybrid fitness for binding parS DNA” value was at most 0.2.
VNPT was tested, and the “one-hybrid fitness for binding parS DNA” value was at most 0.2.
For VENY, the “one-hybrid fitness for binding parS DNA” value was at most 0.2.
In the case of KKSK, the “one-hybrid fitness for binding parS DNA” value is reported as at most 0.2.
LTTY was tested, and the “one-hybrid fitness for binding parS DNA” value was at most 0.2.
In the case of QGPL, the “one-hybrid fitness for binding parS DNA” value is reported as at most 0.2.
In the case of CALG, the “one-hybrid fitness for binding parS DNA” value is reported as at most 0.2.
LIHS was tested, and the “one-hybrid fitness for binding parS DNA” value was at most 0.2.
FINV was tested, and the “one-hybrid fitness for binding parS DNA” value was at most 0.2.
With SLVK the “one-hybrid fitness for binding parS DNA” value was at most 0.2.
For QYQY, the “one-hybrid fitness for binding parS DNA” value was at most 0.2.
In the case of QYAA, the “one-hybrid fitness for binding parS DNA” value is reported as at most 0.2.
For YYHT, the “one-hybrid fitness for binding parS DNA” value was at most 0.2.
With YPTE the “one-hybrid fitness for binding parS DNA” value was at most 0.2.
With TMTG the “one-hybrid fitness for binding parS DNA” value was at most 0.2.
In the case of FHAF, the “one-hybrid fitness for binding parS DNA” value is reported as at most 0.2.
In the case of PSWW, the “one-hybrid fitness for binding parS DNA” value is reported as at most 0.2.
For LLKG, the “one-hybrid fitness for binding parS DNA” value was at most 0.2.
For VFHV, the “one-hybrid fitness for binding parS DNA” value was at most 0.2.
MLAM was tested, and the “one-hybrid fitness for binding parS DNA” value was at most 0.2.
For IMTS, the “one-hybrid fitness for binding parS DNA” value was at most 0.2.
In the case of DLLN, the “one-hybrid fitness for binding parS DNA” value is reported as at most 0.2.
For KGMA, the “one-hybrid fitness for binding parS DNA” value was at most 0.2.
For REAA, the “one-hybrid fitness for binding parS DNA” value was at most 0.2.
For CRYY, the “one-hybrid fitness for binding parS DNA” value was at most 0.2.
With LPKT the “one-hybrid fitness for binding parS DNA” value was at most 0.2.
For LHPI, the “one-hybrid fitness for binding parS DNA” value was at most 0.2.
With MTYL the “one-hybrid fitness for binding parS DNA” value was at most 0.2.
HVTS was tested, and the “one-hybrid fitness for binding parS DNA” value was at most 0.2.
In the case of TSRG, the “one-hybrid fitness for binding parS DNA” value is reported as at most 0.2.
For HHDW, the “one-hybrid fitness for binding parS DNA” value was at most 0.2.
TQRI was tested, and the “one-hybrid fitness for binding parS DNA” value was at most 0.2.
With YLYN the “one-hybrid fitness for binding parS DNA” value was at most 0.2.
For EIFC, the “one-hybrid fitness for binding parS DNA” value was at most 0.2.
In the case of SPHR, the “one-hybrid fitness for binding parS DNA” value is reported as at most 0.2.
LWTC was tested, and the “one-hybrid fitness for binding parS DNA” value was at most 0.2.
With PYRL the “one-hybrid fitness for binding parS DNA” value was at most 0.2.
In the case of RYIE, the “one-hybrid fitness for binding parS DNA” value is reported as at most 0.2.
YVTC was tested, and the “one-hybrid fitness for binding parS DNA” value was at most 0.2.
For NDIW, the “one-hybrid fitness for binding parS DNA” value was at most 0.2.
With SYWW the “one-hybrid fitness for binding parS DNA” value was at most 0.2.
NIKP was tested, and the “one-hybrid fitness for binding parS DNA” value was at most 0.2.
DSFG was tested, and the “one-hybrid fitness for binding parS DNA” value was at most 0.2.
With EVAS the “one-hybrid fitness for binding parS DNA” value was at most 0.2.
With QGSG the “one-hybrid fitness for binding parS DNA” value was at most 0.2.
In the case of HYYT, the “one-hybrid fitness for binding parS DNA” value is reported as at most 0.2.
For SSVW, the “one-hybrid fitness for binding parS DNA” value was at most 0.2.
GRTM was tested, and the “one-hybrid fitness for binding parS DNA” value was at most 0.2.
For WIGS, the “one-hybrid fitness for binding parS DNA” value was at most 0.2.
With NVHS the “one-hybrid fitness for binding parS DNA” value was at most 0.2.
With QAVM the “one-hybrid fitness for binding parS DNA” value was at most 0.2.
With TGSW the “one-hybrid fitness for binding parS DNA” value was at most 0.2.
NTEV was tested, and the “one-hybrid fitness for binding parS DNA” value was at most 0.2.
For IGSC, the “one-hybrid fitness for binding parS DNA” value was at most 0.2.
RFEL was tested, and the “one-hybrid fitness for binding parS DNA” value was at most 0.2.
SVVW was tested, and the “one-hybrid fitness for binding parS DNA” value was at most 0.2.
QSCG was tested, and the “one-hybrid fitness for binding parS DNA” value was at most 0.2.
LMGG was tested, and the “one-hybrid fitness for binding parS DNA” value was at most 0.2.
TAYS was tested, and the “one-hybrid fitness for binding parS DNA” value was at most 0.2.
In the case of QSAT, the “one-hybrid fitness for binding parS DNA” value is reported as at most 0.2.
In the case of QNVR, the “one-hybrid fitness for binding parS DNA” value is reported as at most 0.2.
For YRQQ, the “one-hybrid fitness for binding parS DNA” value was at most 0.2.
With DRNG the “one-hybrid fitness for binding parS DNA” value was at most 0.2.
With KYPQ the “one-hybrid fitness for binding parS DNA” value was at most 0.2.
With RTTI the “one-hybrid fitness for binding parS DNA” value was at most 0.2.
In the case of RMRK, the “one-hybrid fitness for binding parS DNA” value is reported as at most 0.2.
In the case of NIRC, the “one-hybrid fitness for binding parS DNA” value is reported as at most 0.2.
In the case of PMDT, the “one-hybrid fitness for binding parS DNA” value is reported as at most 0.2.
For LCHG, the “one-hybrid fitness for binding parS DNA” value was at most 0.2.
QAIH was tested, and the “one-hybrid fitness for binding parS DNA” value was at most 0.2.
In the case of DCHV, the “one-hybrid fitness for binding parS DNA” value is reported as at most 0.2.
TRLN was tested, and the “one-hybrid fitness for binding parS DNA” value was at most 0.2.
With DDKH the “one-hybrid fitness for binding parS DNA” value was at most 0.2.
With QQWR the “one-hybrid fitness for binding parS DNA” value was at most 0.2.
For TVFR, the “one-hybrid fitness for binding parS DNA” value was at most 0.2.
With TFER the “one-hybrid fitness for binding parS DNA” value was at most 0.2.
With EGDS the “one-hybrid fitness for binding parS DNA” value was at most 0.2.
For PPCC, the “one-hybrid fitness for binding parS DNA” value was at most 0.2.
QEEF was tested, and the “one-hybrid fitness for binding parS DNA” value was at most 0.2.
With CPDA the “one-hybrid fitness for binding parS DNA” value was at most 0.2.
For AWYY, the “one-hybrid fitness for binding parS DNA” value was at most 0.2.
With KGSR the “one-hybrid fitness for binding parS DNA” value was at most 0.2.
With TCIS the “one-hybrid fitness for binding parS DNA” value was at most 0.2.
In the case of DLRN, the “one-hybrid fitness for binding parS DNA” value is reported as at most 0.2.
For QCLE, the “one-hybrid fitness for binding parS DNA” value was at most 0.2.
HSHR was tested, and the “one-hybrid fitness for binding parS DNA” value was at most 0.2.
With PVMT the “one-hybrid fitness for binding parS DNA” value was at most 0.2.
With GERW the “one-hybrid fitness for binding parS DNA” value was at most 0.2.
For TGLW, the “one-hybrid fitness for binding parS DNA” value was at most 0.2.
With WKHG the “one-hybrid fitness for binding parS DNA” value was at most 0.2.
With QAFE the “one-hybrid fitness for binding parS DNA” value was at most 0.2.
In the case of DIRK, the “one-hybrid fitness for binding parS DNA” value is reported as at most 0.2.
For VYAN, the “one-hybrid fitness for binding parS DNA” value was at most 0.2.
CVQE was tested, and the “one-hybrid fitness for binding parS DNA” value was at most 0.2.
In the case of QLPK, the “one-hybrid fitness for binding parS DNA” value is reported as at most 0.2.
With ARAC the “one-hybrid fitness for binding parS DNA” value was at most 0.2.
With EACR the “one-hybrid fitness for binding parS DNA” value was at most 0.2.
With RHPM the “one-hybrid fitness for binding parS DNA” value was at most 0.2.
For HCGM, the “one-hybrid fitness for binding parS DNA” value was 0.248.
LKTY was tested, and the “one-hybrid fitness for binding parS DNA” value was at most 0.2.
EQWV was tested, and the “one-hybrid fitness for binding parS DNA” value was at most 0.2.
In the case of RWQP, the “one-hybrid fitness for binding parS DNA” value is reported as at most 0.2.
For RMLA, the “one-hybrid fitness for binding parS DNA” value was 0.609.
For SKTW, the “one-hybrid fitness for binding parS DNA” value was at most 0.2.
For HKMG, the “one-hybrid fitness for binding parS DNA” value was at most 0.2.
In the case of YRYM, the “one-hybrid fitness for binding parS DNA” value is reported as at most 0.2.
SLIW was tested, and the “one-hybrid fitness for binding parS DNA” value was at most 0.2.
VNSM was tested, and the “one-hybrid fitness for binding parS DNA” value was at most 0.2.
TFPL was tested, and the “one-hybrid fitness for binding parS DNA” value was at most 0.2.
In the case of CVCS, the “one-hybrid fitness for binding parS DNA” value is reported as at most 0.2.
In the case of AIDG, the “one-hybrid fitness for binding parS DNA” value is reported as at most 0.2.
